Results from PMC4336329 (PLoS ONE, 2015).
Out of some 310,000 compounds screened, about 2,200 (0.71%) showed an effect of 50% or more. Effects have a minus sign here. This is one part of the list.

The molecules below were run against human ether-à-go-go-related gene (hERG) potassium channel (human, UniProt Q12809) (assay: primary screen, population patch clamp on CHO cells stably expressing hERG).
human ether-à-go-go-related gene (hERG) potassium channel, sequence (Q12809 whole entry, looked up): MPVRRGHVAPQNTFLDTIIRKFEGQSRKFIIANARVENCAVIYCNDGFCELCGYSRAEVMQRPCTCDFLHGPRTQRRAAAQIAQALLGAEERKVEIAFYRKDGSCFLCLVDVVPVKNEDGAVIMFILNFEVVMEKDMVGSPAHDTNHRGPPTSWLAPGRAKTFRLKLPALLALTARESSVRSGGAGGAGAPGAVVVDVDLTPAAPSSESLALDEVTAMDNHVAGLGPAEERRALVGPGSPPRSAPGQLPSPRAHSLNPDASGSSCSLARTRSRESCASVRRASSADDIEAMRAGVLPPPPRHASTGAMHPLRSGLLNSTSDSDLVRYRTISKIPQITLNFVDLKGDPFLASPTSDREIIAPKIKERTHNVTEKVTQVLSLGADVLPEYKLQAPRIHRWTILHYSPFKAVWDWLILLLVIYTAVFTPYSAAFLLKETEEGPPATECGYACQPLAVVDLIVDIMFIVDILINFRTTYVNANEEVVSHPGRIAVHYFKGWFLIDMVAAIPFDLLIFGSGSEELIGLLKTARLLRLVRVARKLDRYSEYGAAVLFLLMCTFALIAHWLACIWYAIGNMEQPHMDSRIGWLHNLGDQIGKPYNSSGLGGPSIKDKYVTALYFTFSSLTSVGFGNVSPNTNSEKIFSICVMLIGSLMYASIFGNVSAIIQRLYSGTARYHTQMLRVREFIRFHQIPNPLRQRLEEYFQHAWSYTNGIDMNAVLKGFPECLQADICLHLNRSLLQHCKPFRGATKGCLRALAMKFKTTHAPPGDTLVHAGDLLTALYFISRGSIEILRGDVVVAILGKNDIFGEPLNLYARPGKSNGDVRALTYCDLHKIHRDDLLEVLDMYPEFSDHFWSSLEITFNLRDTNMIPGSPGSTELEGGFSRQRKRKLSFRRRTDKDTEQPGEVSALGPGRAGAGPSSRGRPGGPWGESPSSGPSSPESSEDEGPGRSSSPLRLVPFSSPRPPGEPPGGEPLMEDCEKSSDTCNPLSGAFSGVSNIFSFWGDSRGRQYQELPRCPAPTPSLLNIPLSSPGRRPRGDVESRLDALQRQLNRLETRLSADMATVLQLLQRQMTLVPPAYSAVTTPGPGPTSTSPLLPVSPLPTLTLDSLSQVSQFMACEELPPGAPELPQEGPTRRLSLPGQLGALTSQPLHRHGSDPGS

SMILES	hERG current change (%, negative = inhibition) at 1uM [%]
OC1CCN(CC(O)C(F)(F)F)CC1 (centres unmarked)	11.9
Cc1cc(C)c2[nH]c(=O)c(CN(Cc3cccs3)C(=S)NCC3CCCO3)cc2c1 (centres unmarked)	6.49
COc1cccc(N2C(=O)CC(N3CCN(S(=O)(=O)c4ccccc4)CC3)C2=O)c1 (centres unmarked)	13.7
COc1ccc(Cc2nnc(NC(=O)c3ccccc3[N+](=O)[O-])s2)cc1	13.4
O=C(NCc1ccccn1)/C(=C/c1ccco1)NC(=O)c1ccccc1	8.44
COc1cc(OC)cc(-c2cc(N)n(S(=O)(=O)c3cccc4nsnc34)n2)c1	8.61
O=C(O)c1cc(C(=O)C2CCCCC2)c[nH]1	18.7
C/C=C/Cn1c(SCc2ccc(C)cc2)nc2c1c(=O)[nH]c(=O)n2C	1.64
CC1CCC2CCCCC2N1C(=O)c1cc([N+](=O)[O-])cc([N+](=O)[O-])c1 (centres unmarked)	12.8
O=C(CN1CCN(c2ccccn2)CC1)N1CC(O)CO1 (centres unmarked)	14
CCOC(=O)c1c2c(c(=S)n(-c3ccccc3)c1N)CCC2	14.7
CCOc1ccc(C2C3=C(CCCC3=O)OC(N)=C2[N+](=O)[O-])cc1 (centres unmarked)	20.5
COCCNC(=O)CSc1nc2ccccc2c2nc(C)nn12	-1.01
NC(=O)C1CCN(CC(=O)NC2CCCc3ccccc32)CC1 (centres unmarked)	14.4
NNC(=O)CCn1nnc2ccccc21	12.8
O=C(NCCN1C(=O)S/C(=C\c2ccc(Cl)c(Cl)c2)C1=O)c1ccc2c(c1)C(=O)N(Cc1ccncc1)C2=O	15.7
O=C(Nc1cccc(Cl)c1)Nc1ccccc1NS(=O)(=O)c1cccs1	13.3
Cc1ccc(N2CC(C(=O)NC3CCC(C)CC3)CC2=O)cc1 (centres unmarked)	7.43
O=C(O)Cc1ccc(NC(=O)Nc2cccc(Cl)c2)cc1	10.1
CCNCCNc1ccc([N+](=O)[O-])c2cccnc12	0.729
Cc1cc(=O)oc2cc(O)ccc12	19.1
O=C(Cn1cccc1C(=O)c1ccccc1)NCc1cccs1	13.1
CCc1n[nH]c(=S)n1/N=C/c1cc(Br)c(OC)cc1OC	26.3
NS(=O)(=O)c1cccc(NC(=O)CCSc2ccc(Cl)cc2)c1	11.8
O=C(N1CCCCC1)C12CC3CC(CC(C3)C1)C2	11.7
Cc1cn(C2CCC(CO)O2)c(=O)[nH]c1=O (centres unmarked)	7.91
